Test results taken from the supplement of paper PMC4166925.
± gives the standard deviation of the averaged measurements. Whole data set: some 33,000 sequences, median “E-score (dimensionless, -0.5 to 0.5)” near -0.046, cut for the highest 2% near 0.36. The list shows a part of the results.

Tested on: T1, SpTbr T-box DNA-binding domain (GST fusion)
T1 sequence: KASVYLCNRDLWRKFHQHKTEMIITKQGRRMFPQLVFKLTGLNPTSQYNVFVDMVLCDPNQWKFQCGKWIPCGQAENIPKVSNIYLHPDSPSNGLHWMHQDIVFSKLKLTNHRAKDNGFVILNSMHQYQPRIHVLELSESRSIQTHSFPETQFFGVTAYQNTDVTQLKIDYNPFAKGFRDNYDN
Test: PBM E-score of 8-mer (E-score (dimensionless, -0.5 to 0.5)); Tbr is Tbrain of the sea star Patiria miniata (Pm) or the sea urchin Strongylocentrotus purpuratus (Sp); higher = stronger binding preference; most listed sequences are background and not binding sites
Details: the construct has about 5 more residues each side
In short: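 Primer extension turned Universal Agilent oligonucleotide arrays double-stranded. They were incubated with 200 nM protein in PBS (pH 7.5); the protein was a GST-fused Tbr T-box DNA-binding domain expressed in BL21 E. coli at 20 °C and purified on glutathione. Every ungapped 8-mer was scored from the scanned, quantified probe intensities, and the Universal PBM Analysis Suite gave each an enrichment E-score averaged over duplicate arrays.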

Sequence	PBM E-score of 8-mer
ATATTCGC	0.16 ± 0.029
GTCCGAGA	-0.149 ± 0.026
GCGAGCCC	-0.0731 ± 0.098
AATAGTCG	-0.0011 ± 0.0085
CGGTAACA	0.239 ± 0.051
CCTAGATA	-0.285 ± 0.047
GCCCGTGA	-0.0135 ± 0.069
CTGTAGGA	-0.214 ± 0.0083
AAGAGGCG	0.187 ± 0.027
AGAGCCAC	-0.09 ± 0.049
AAGCACTT	0.0747 ± 0.093
GCCTAGCC	-0.167 ± 0.016
CGTGACCA	0.263 ± 0.048
AGCTCATA	-0.0758 ± 0.02
ACACAACT	0.202 ± 0.0066
AGCATTGA	-0.182 ± 0.0027
TTCGTAAA	-0.099 ± 0.049
AGGGAGCA	0.0315 ± 0.006
AGTGCGCG	0.23 ± 0.071
GTGATCAA	0.144 ± 0.022
CTAATGAG	-0.232 ± 0.013
ATGTTACC	-0.153 ± 0.019
CCGCACGA	-0.156 ± 0.12
ATAGCACG	0.34 ± 0.0094
CCCATGAC	-0.0994 ± 0.037

Sequence	PBM E-score of 8-mer
AAGGTATT	0.138 ± 0.056
AAAACGTT	-0.173 ± 0.059
ACCGGATA	-0.157 ± 0.023
CAATAGTC	0.102 ± 0.11
GTGGACTA	-0.191 ± 0.017
GGCAGGCA	-0.206 ± 0.022
CCTCAAGC	-0.0512 ± 0.024
AAGCGGTG	-0.1161 ± 0.00078
CAAATAAA	-0.151 ± 0.0077
ACGCGCCT	0.188 ± 0.036
GTGCGGGA	0.166 ± 0.0064
AAATTGGC	0.0777 ± 0.0011
AACGGCTG	-0.102 ± 0.0077
CCATACAC	-0.0629 ± 0.0037
AGCGCGAG	0.306 ± 0.017
AAGCCACG	0.012 ± 0.0057
CGAGATAG	-0.0605 ± 0.0028
TAATCCGA	-0.195 ± 0.077
CTTAAAAG	-0.0743 ± 0.042
ATTCGCAG	0.33 ± 0.013
ACAAGGAG	-0.0116 ± 0.076
AAGTTAGA	-0.186 ± 0.08
ACAAGATG	-0.0145 ± 0.022
CCCTCCAA	-0.0153 ± 0.012
ACTATCTG	0.163 ± 0.0089

Sequence	PBM E-score of 8-mer
AAGTGCAT	-0.097 ± 0.032
AGGCTCAT	-0.195 ± 0.048
ACCAGAAA	0.106 ± 0.073
ACAGAAAT	-0.11 ± 0.078
TCGAAGAA	-0.222 ± 0.062
ACCTGTAA	0.154 ± 0.021
CCCAGTAA	-0.178 ± 0.0079
GCGTTAAC	0.374 ± 0.011
CTTTATGC	-0.25 ± 0.0054
ACATCGAG	-0.111 ± 0.071
TTGTAAAA	-0.0388 ± 0.032
ATTGGATC	-0.059 ± 0.022
CGGGAGGC	0.0492 ± 0.053
TGGTACAA	-0.124 ± 0.034
ACTAATCC	-0.0916 ± 0.045
TATTATGA	0.101 ± 0.05
GCCTGCCC	-0.146 ± 0.058
AACCGCGG	0.091 ± 0.053
CTGAGTTA	-0.136 ± 0.051
AAGCGCCT	-0.0678 ± 0.053
GAGGGCCC	-0.115 ± 0.015
CACTTTGA	0.285 ± 0.038
CGAATTTA	-0.0218 ± 0.072
GCAATGTA	-0.0606 ± 0.052
ACCCCTGC	-0.0249 ± 0.023

Sequence	PBM E-score of 8-mer
TAGGCATA	-0.0515 ± 0.033
GCATTGGC	0.024 ± 0.06
AGAGCGAT	-0.0402 ± 0.075
ATCTCAGG	-0.132 ± 0.0044
AGCCAACA	0.0691 ± 0.042
ACCAAAGC	-0.0584 ± 0.078
AGGGTGGG	0.0275 ± 0.071
ACGCGTGC	0.149 ± 0.066
CATGTTAG	0.00386 ± 0.017
ATGATTTG	0.0278 ± 0.096
AGCCGGCA	0.0579 ± 0.0021
GCACGTCA	0.274 ± 0.0053
CCTACAAC	0.176 ± 0.055
ATCACGTA	0.00826 ± 0.0074
GCCACACC	0.421 ± 0.036
ATTTGTAG	-0.0955 ± 0.049
GCGATCAC	0.321 ± 0.032
AAAAATAT	-0.0931 ± 0.041
GGCTCAAA	-0.176 ± 0.096
CCAACCTC	0.0647 ± 0.014
ACTCGCCC	-0.231 ± 0.026
AAGAGCTA	-0.167 ± 0.11
CTTGGCGA	0.0995 ± 0.087
AGACCAAC	-0.0505 ± 0.056
CAAGGATG	-0.266 ± 0.033

Sequence	PBM E-score of 8-mer
CATAGGCC	-0.155 ± 0.0077
CTACATAA	-0.145 ± 0.0065
GTTGCAAC	0.0966 ± 0.046
TATAACCA	-0.114 ± 0.039
CTAAAGTC	-0.0847 ± 0.033
CCTGGAGC	-0.16 ± 0.026
ACTATTAC	-0.149 ± 0.051
ACGGCCGG	-0.0239 ± 0.018
TAAGCGAA	-0.0797 ± 0.053
AATCTTGC	-0.137 ± 0.032
ACATTTGA	0.0665 ± 0.045
ACACGTTC	0.2806 ± 0.0017
TGACATCA	0.0637 ± 0.079
GTCAGCAA	-0.00252 ± 0.012
ACCATCGA	-0.00463 ± 0.029
AGCCATTA	-0.133 ± 0.0029
AAGAAACC	-0.104 ± 0.041
TAATTAGA	-0.212 ± 0.032
AATGCCGG	-0.117 ± 0.08
GGACCCAA	-0.182 ± 0.039
GCTATTCA	0.115 ± 0.0044
TAACCGTA	-0.0947 ± 0.051
ATCCAGGG	0.00773 ± 0.033
AGTCCGGG	-0.21 ± 0.011
CGTCGCCA	0.164 ± 0.015

Sequence	PBM E-score of 8-mer
CTGCCTAC	-0.1832 ± 0.0002
GCCAGCTA	-0.0677 ± 0.026
CGGGTGAA	-0.3489 ± 0.0032
GGCCGGAC	-0.161 ± 0.022
CCCGCGCG	0.107 ± 0.071
GAGAGAAA	-0.0608 ± 0.087
GACTTTGC	-0.105 ± 0.0056
AGTATCTC	-0.212 ± 0.029
AAAACATA	-0.133 ± 0.027
GACGGATC	-0.122 ± 0.04
AATACGTG	0.0324 ± 0.069
ATTGATTG	0.031 ± 0.019
GCTTTAAC	-0.0969 ± 0.078
ATAAATTG	-0.0747 ± 0.066
CCATTCCC	-0.132 ± 0.05
CGTGAACG	0.361 ± 0.02
CTAGGATA	-0.0736 ± 0.024
ACGCTATG	-0.00543 ± 0.0011
AAAACGTA	-0.0702 ± 0.047
CGTTCACC	0.0843 ± 0.012
GAGTGTCC	0.0603 ± 0.01
AATAACCT	-0.18 ± 0.022
AGGCATAC	-0.154 ± 0.03
ACATTCAA	-0.146 ± 0.044
AGCTTACC	-0.274 ± 0.031

Sequence	PBM E-score of 8-mer
CCATCATA	-0.216 ± 0.073
GAGGTGAC	0.429 ± 0.018
CGGAATGC	-0.214 ± 0.051
ACGTCACG	0.217 ± 0.057
AATGGCCC	-0.219 ± 0.018
GAGACAAC	0.0497 ± 0.032
AAAGCAGT	-0.167 ± 0.049
ACTCAGAA	-0.0477 ± 0.035
AGGTTAAT	-0.141 ± 0.089
CTTATCTC	0.0423 ± 0.024
AACGAGGG	-0.217 ± 0.083
CAGACCTG	-0.0842 ± 0.0016
AAGGTGCG	0.4522 ± 0.0011
CCGGGACA	-0.219 ± 0.052
GCTGTACC	-0.15 ± 0.019
AGGATTAG	-0.233 ± 0.0027
ACTCTCTG	-0.0555 ± 0.053
ATTTGTTC	0.116 ± 0.037
CGCACGCC	0.27 ± 0.06
GGTCGTAA	-0.112 ± 0.04
GGCCCGAC	-0.0521 ± 0.057
AACTCTTA	-0.427 ± 0.0093
